From PubChem BioAssay (NCI) come the findings set out here.

Where “and” joins values, the source holds several entries; their conditions need not be identical. Identical values can stand only once.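 96-well plates; 48 h exposure; 5 concentrations. Endpoints by linear interpolation between flanking doses. Not reached: highest tested concentration assigned. Here, GI50 denotes the concentration required for 50% inhibition of growth. The concentration for full growth arrest is given as TGI.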 Some results are limits rather than exact numbers.

The subject of this assay is NCI-H322M lung. Briefly: NCI-60 cell line screen, 48 h.

`CCOC(=O)C1=C(C)N(c2ccc(F)cc2F)[C@]2(C#N)C(O)=C(Cl)C(Cl)=C(O)[C@]12C#N`: the GI50 is greater than 100 µM and the TGI is greater than 100 µM.
`COC(=O)C1=C(C(=O)OC)SC(=C2SCSC3=C2SC(C(=O)OC)=C(C(=O)OC)C32SC3=C(CCCC3)S2)S1` displayed a TGI greater than 100 µM.
For `N[C@@H]1CCCC[C@@H]1N.O=P([O-])([O-])CN(CCN(CP(=O)([O-])[O-])CP(=O)([O-])[O-])CP(=O)([O-])[O-].[Pt+2]`, the GI50 is greater than 25 µM and the TGI was greater than 25 µM.
Consider `Oc1ccc(-c2nc3ccc(Br)cc3s2)cc1`, for which the TGI was found to be 81.4 µM.
Still for that read-out and setting: to `CCOC(=O)C1=C(C(=O)OCC)C2c3ccccc3C=CN2C(C(=O)OCC)=C(SC)S1` (stereo not given) belongs greater than 100 µM.
On the same count and under the same terms, the figure for `O=[N+]([O-])c1cc(C=NC23CC4CC(CC(C4)C2)C3)ccc1Cl` is greater than 100 µM.
On to `COc1cccc(C(=O)NC(c2ccc(C)cc2)c2cc(Cl)c3cccnc3c2O)c1` (stereo not given), for which the GI50 is 0.617 µM and the TGI amounted to 27.3 µM.
`COc1nncc2[nH]c(-c3ccccc3)cc12` gave a TGI greater than 100 µM.
Same read-out and setting: to `Oc1[nH]c2ccccc2c1N=Nc1nc(-c2ccc(Br)cc2)cs1` belongs greater than 100 µM; to `COc1ccc(N=NC(=Nc2ccccc2)c2ccc(N(CCC#N)CCC#N)cc2)cc1`, greater than 100 µM.
`CC1CN(C)c2ccccc2N=C1NN` (stereo not given) showed a TGI greater than 100 µM.
Same read-out and setting: the figure for `C/C(=N/Nc1ccc([N+](=O)[O-])cc1[N+](=O)[O-])C(CC(C(=O)NCc1ccccc1)/C(C)=N\Nc1ccc([N+](=O)[O-])cc1[N+](=O)[O-])C(=O)NCc1ccccc1` (stereo not given) is 5.13 µM; for `Cc1ccc(-c2csc(=Nc3ccccc3)n2NC(=O)c2ccncc2)cc1` it is greater than 100 µM; for `O=[N+]([O-])c1ccc2[nH]nc(OCc3ccccc3Cl)c2c1` it is greater than 100 µM.
As to `CCn1c(-c2nonc2N)nc2c(C#CC(C)(C)O)nc(OC[C@@H](N)c3ccccc3)cc21`, the GI50 is 7.59 µM and the TGI is 17.1 µM.
For the molecule `CC(C)=CCC(O)C1=CC(=O)c2c(O)ccc(O)c2C1=O` (stereo not given), the TGI was 7.3 µM.
`Nc1nc(SCCC/C=C/I)nc2c1ncn2C1OC(COP(=O)(O)O)C(O)C1O` (stereo not given) displayed a TGI greater than 100 µM.
Still for that read-out and setting: to `O=C(N/N=C/c1ccc(Cl)cc1)c1c(Cl)c(Cl)c(Cl)c(Cl)c1-c1nc2ccccc2[nH]1` belongs greater than 100 µM; to `N[C@@H](CCC(=O)NCP(=O)(O)O)C(=O)O`, greater than 100 µM.
For `CC1(COc2ccc3c(c2)ncn3-c2ccc3cccc(N4CCC(N)CC4)c3n2)COC1`, the GI50 is 2.72 µM and 2.24 µM; the TGI was 10.4 µM and 8.39 µM.
The molecule `COc1ccc(OC)c(N2CC(N)C2=O)c1` (stereo not given) had a TGI greater than 100 µM.
The same measure, in the same setting: the figure for `CC(=O)O/N=C(/C)c1ccccc1O` is greater than 100 µM.
Same read-out and setting: to `CCOC(=O)N1CCN(Cc2cc(=O)n3ccc(C)cc3n2)CC1` belongs greater than 100 µM; to `Cc1cc(Nc2ccc(S(=O)(=O)O)c3cc(S(=O)(=O)O)cc(S(=O)(=O)O)c23)c2ccccc2n1`, greater than 100 µM; to `Nn1c(-c2ccccc2)n[nH]c1=O`, greater than 100 µM.
On the same count and under the same terms, the figure for `CCCCN(CCCC)C(=O)C(=O)C(C(=O)c1ccc(OC)cc1)c1ccc(OC)cc1` (stereo not given) is greater than 100 µM.
For `COC[C@H]1Cn2cc(-c3nc(Nc4ccnn4C)ncc3C)nc2C(=O)N1Cc1ccc(F)c(F)c1`, the GI50 was 1.07 µM and the TGI was greater than 100 µM.
On the same counts, the results for `O=C(Nc1ccc(Oc2ccc(Nc3nc4ccccc4s3)cc2)cc1)Nc1ccc(Cl)c(C(F)(F)F)c1` are 1.9 µM and 4.47 µM.
Turning to `Nc1c(S(=O)(=O)O)cc2cc(S(=O)(=O)O)ccc2c1N=Nc1ccc(-c2ccc(N=Nc3c(N)c(S(=O)(=O)O)cc4cc(S(=O)(=O)O)ccc34)c(S(=O)(=O)O)c2)cc1`, the TGI is greater than 100 µM.
For `C=C1C(=O)O[C@H]2[C@H]1CC/C(COC(=O)NCc1ccc(Cn3c(=O)sn(-c4ccc(OC)cc4)c3=O)cc1)=C\CC[C@@]1(C)O[C@@H]21`, the GI50 was 13.8 µM and the TGI was determined as 26.7 µM.
For the molecule `COP(=O)(OC)C1=c2c(C)noc2=C2C=COC2C1=O` (stereo not given), the TGI was greater than 100 µM.
The same measure, in the same setting: the figure for `CC(=O)c1c2c(c3ccccc3c1O)O[C@@H]1OCC[C@H]21` is greater than 100 µM.
Turning to `O=C1NC(=NC(CO)Cc2ccccc2)S/C1=C\c1ccc2ncccc2c1` (stereo not given), the GI50 was 15.5 µM and 2.24 µM; the TGI is greater than 25 µM.
The molecule `COc1ccc2cc1Oc1ccc(cc1)C[C@H]1c3cc(c(OC)cc3CCN1C)Oc1c(O)c(OC)cc3c1[C@H](C2)N(C)CC3` showed a TGI of 72.2 µM.
On the same count and under the same terms, to `CCOC(=O)Nc1sc2c(c1C#N)CCCC2` belongs greater than 100 µM; to `C/C(=C\CBr)CCC(Br)C(C)(C)Br` (stereo not given), greater than 100 µM; to `O=C1CN(c2cccc(Cl)c2)C(=O)CN1CCN1CC(=O)N(c2cccc(Cl)c2)CC1=O`, greater than 100 µM.
Consider `Cn1ccc2c3c(Oc4ccc(NC(N)=O)cc4)ccnc3ccc21`, for which the GI50 is greater than 100 µM and the TGI is greater than 100 µM.
In turn, `Cc1ccc(NC(=O)CC2Sc3ccccc3NC2=O)cc1C` (stereo not given) displayed a TGI greater than 100 µM.
The same measure, in the same setting: the figure for `O=C(O)c1ccc2c(c1C(=O)O)C(=O)OC2(c1ccc(O)cc1)c1ccc(O)cc1` is greater than 100 µM; for `Cc1ccc(N(Cc2ccccc2)Cc2ccccc2)cc1` it is greater than 100 µM; for `Nc1c(-c2ccc(Cl)c(Cl)c2)c2ccc([N+](=O)[O-])cc2c(=O)n1-c1nc2ccccc2s1` it is 17 µM.
For the molecule `CCCCCCCCCCCCCCCC[N+](C)(C)Cc1ccccc1`, the GI50 is 4.54 µM and 2.2 µM; the TGI is 37 µM and 4.55 µM.
Take `COc1cc(C2CC(C)(O)Oc3cc4c(cc32)OCO4)cc(OC)c1OC` (stereo not given): the TGI is greater than 100 µM.
The same measure, in the same setting: the figure for `CC(=O)CC(OC(C)=O)C1=CCC2C(CC1C)OC(=O)C2C` (stereo not given) is greater than 100 µM.
For the molecule `COc1ccc(CCN=C2NC(=O)/C(=C/c3ccc4ncccc4c3)S2)cc1`, the GI50 was greater than 25 µM and the TGI was greater than 25 µM.
In the case of `CCCCCC[C@@H]1CCC2C(CO)[C@@H](O)CC[C@@H]2C1` (stereo not given in full), the TGI is 30.1 µM.
On the same count and under the same terms, to `N#C/C(=C1/Sc2c(nc[nH]c2=O)N1c1ccccc1)c1nc2ccccc2[nH]1` belongs greater than 100 µM; to `Cc1ccnc(NS(=O)(=O)c2ccc(N=[N+]=[N-])cc2)n1`, greater than 100 µM.
For the molecule `CCCCCCCC/C=C\CCCCCCCCCCCC(=O)O`, the TGI is greater than 115 µM.
`NS(=O)(=O)c1nnc(NC(=O)Nc2ccc(Cl)c(Cl)c2)s1`: the TGI amounted to 53.9 µM.
Same read-out and setting: to `C=CC[C@H](C[C@H](C[C@H](C[C@H](C[C@H](C[C@H](C[C@H](C[C@H](C[C@H](C[C@H](CCCCC)OC)OC)OC)OC)OC)OC)OC)OC)OC)OC` belongs greater than 100 µM.
In the case of `O=C(CCCSc1nc(-c2ccccc2)cc(-c2ccccc2)n1)NO`, the GI50 was 1.76 µM and the TGI worked out at 10.5 µM.
`COc1ccc(/C=c2\sc3n(c2=O)CCN=3)cc1` came in with a TGI greater than 100 µM.
Still for that read-out and setting: the figure for `CC1=Nc2ccccc2OC(C)=C1N=Nc1ccc2nc(C)[nH]c2c1` is greater than 100 µM.
`COc1cc(/C(C#N)=C/c2nc3c(N4CCOCC4)nc(Cl)nc3n2C)cc(OC)c1OC`: the GI50 was less than 0.01 µM and the TGI was greater than 100 µM.
The molecule `COC(=O)[C@@H](O)[C@](O)(CCC(C)C)C(=O)O[C@@H]1C(OC)=C[C@]23CCCN2CCc2cc4c(cc2[C@H]13)OCO4` displayed a TGI of 20 µM.
`COCCOc1ccc(-c2nc3ccc(-c4nc5ccc(N6CCN(C)CC6)cc5[nH]4)cc3[nH]2)cc1`: the GI50 is 3.07 µM and the TGI is 9.93 µM.
With `CC(C)c1cc2c(cc1S(=O)(=O)O)[C@@]1(C)CCC[C@@](C)(C(=O)O)C1CC2` (stereo not given in full), the TGI was greater than 100 µM.
The same measure, in the same setting: to `COc1nc(NC2OC(COC(C)=O)C(OC(C)=O)C(OC(C)=O)C2OC(C)=O)c2c(OC(C)=O)cc(=O)oc2n1` (stereo not given) belongs greater than 100 µM; to `Oc1ccc(Cc2cc(Cc3ccc(O)cc3)cc(Cc3ccc(O)cc3)c2)cc1`, greater than 50 µM; to `CCC(=O)NCC1CCCN2CCCCC12` (stereo not given), greater than 100 µM.
The same measure, in the same setting: to `CC(C)=CCC[C@@H](C)c1c(O)c(O)c(C)c2nccnc12` belongs greater than 100 µM; to `C=C1CCN2CC[C@@H](OC(=O)/C(C)=C\C)[C@@H]12`, greater than 100 µM.
Turning to `Cc1cc2c(C)[nH]nc2c(C(=O)O)c1C`, the TGI is greater than 100 µM.
On the same count and under the same terms, the figure for `COc1ccc(C)cc1-c1cc(Sc2ccccc2)c(-c2cc(C)ccc2OC)o1` is greater than 31.6 µM.
`O=C(/C=C/c1ccc([N+](=O)[O-])cc1)c1ccc(NCc2nc3ccccc3[nH]2)cc1` returned a TGI of 20.5 µM.
Turning to `COc1ccc(/C=N/NC(=O)c2cccc3cc[nH]c23)cc1O`, the GI50 is 8.3 µM and the TGI was greater than 100 µM.
On the same counts, the results for `O=c1ccc2ccccc2cc1[O-].O=c1ccc2ccccc2cc1[O-].[O]=[U+2]=[O]` are 22.5 µM and 64.1 µM.
In turn, `O=C(Cc1ccc(O)c(O)c1)NCc1c[nH]c2ccccc12` had a TGI greater than 100 µM.
On to `N#C/C(=C\c1cccc(Cl)c1Cl)c1ccccc1`, for which the TGI was greater than 100 µM.
The same measure, in the same setting: the figure for `CC(=O)Nn1c(=S)[nH]c2ccccc21` is greater than 100 µM.
On the same count and under the same terms, to `S=c1sc2c(n1-c1ccccc1)NC=NC2S` (stereo not given) belongs greater than 100 µM; to `COc1ccc(-n2c(C)nc3ccc(NC(=S)Nc4ccccc4)cc3c2=O)cc1`, greater than 100 µM; to `O=c1c(-c2ccccc2)c2oc(c1-c1ccccc1)CSCc1cccc(c1)CSC2`, greater than 100 µM.
In turn, `Nc1nc2c(c(-c3cccc(Cl)c3)n1)COC/C2=C\c1cccc(Cl)c1` returned a TGI greater than 100 µM.
As for `Cc1ccc(/C=C/C(=O)CCN(C)C)cc1`, the TGI was greater than 100 µM.
The same measure, in the same setting: the figure for `O=S(=O)(c1ccccc1)N1CCN(S(=O)(=O)c2ccccc2)c2ccccc21` is greater than 100 µM.
Regarding `COc1ccc(CN2C(=O)/C(=C\c3cc(OC)c(OC)c(OC)c3)c3ccccc32)cc1`, the GI50 was 0.773 µM and the TGI amounted to 3.39 µM.
With `Cc1cccc(C)c1NC(=O)CCCC(=O)C1/C(=N/NC(=O)CC#N)CCC/C1=N\NC(=O)CC#N` (stereo not given), the TGI was greater than 100 µM.
The molecule `CC(=O)N1C(C(=O)NC2CCCCC2)CSC1c1ccccc1` (stereo not given) returned a TGI greater than 100 µM.
Still for that read-out and setting: to `Cc1ccc(Oc2ccc(C)cc2N)cc1` belongs greater than 100 µM.
In the case of `Oc1ccccc1CNCc1nc2ccccc2[nH]1`, the TGI was greater than 100 µM.
Regarding `Nc1c(C(=O)Nc2cccc(C(F)(F)F)c2)sc2nc3c(cc12)CCCCC3`, the GI50 is 4.91 µM and the TGI was greater than 100 µM.
`C[C@]12CCC3C4=C(CCC3C1CCC2=O)C(=O)[C@H]1O[C@H]1C4=O` (stereo not given in full) gave a TGI of 30.8 µM.
On the same count and under the same terms, to `C=C(C)CCOC(c1ccccc1)(c1ccccc1)c1ccccc1` belongs greater than 100 µM.
